The test system of test [1] is HSkMC (human skeletal muscle cells). Nature of the test: cytotoxicity call (relative viability < 0.9). Conditions: 10 µM.
Test [2] deals with HepG2. Nature of the test: cytotoxicity call (relative viability < 0.9). The note with it: 10 µM.
The subject of test [3] is S. aureus RN4220. The experiment in a line: growth inhibition call (relative growth <= 0.2). The note with it: 50 µM.

This is one part of the list.

In the case of `CN1CCN(C(=O)C[C@H]2C=C[C@H](NC(=O)Cc3ccccn3)[C@@H](CO)O2)CC1`, the cytotoxicity call in test [1] and in test [2] was “inactive” in each case. Further, the growth inhibition call in test [3] is “inactive”.
`O=C(C1=C[C@@H](c2csc3ccccc23)C[C@@H](OCc2ccc(CO)cc2)O1)N1CCN(Cc2ccc3c(c2)OCO3)CC1`: the cytotoxicity call in test [1] was “inactive”. Also, the cytotoxicity call in test [2] is “active”. The growth inhibition call in test [3] is “inactive”.
Turning to `CNC(=O)C[C@H]1CC[C@H]2[C@@H](COC[C@@H](O)CN2C(=O)c2ccccn2)O1`, the cytotoxicity call in test [1] and in test [2] was “inactive” throughout. The growth inhibition call in test [3] was “inactive”.
Consider `Cc1ccc(S(=O)(=O)Nc2ccc3c(c2)CC(=O)N([C@H](C)CO)C[C@@H](C)[C@H](CN(C)S(=O)(=O)c2ccc(F)cc2)O3)cc1`, for which the cytotoxicity call in test [1] and in test [2] was “inactive” each time. For the same compound, in test [3], the growth inhibition call is “inactive”.
As for `Cn1c(=O)c2c(ncn2CC(O)CO)n(C)c1=O` (centres undefined), the cytotoxicity call in test [1] and in test [2] was “inactive” in each case. The growth inhibition call in test [3] is “inactive”.
For `C[C@@H]1CCCCO[C@@H](CN(C)S(=O)(=O)c2ccccc2)[C@H](C)CN([C@@H](C)CO)C(=O)c2cc(NC(=O)NC3CCCCC3)ccc2O1`, the cytotoxicity call in test [1] and in test [2] was “inactive” each time. For the same compound, in test [3], the growth inhibition call was “inactive”.
`COc1ccc(C#Cc2ccc3c(c2)O[C@@H](CN(C)C(=O)c2ccccn2)[C@@H](C)CN([C@H](C)CO)S3(=O)=O)cc1`: the cytotoxicity call in test [1] and in test [2] was “inactive” each time. The growth inhibition call in test [3] is “inactive”.
For the compound `C[C@@H]1CCCCO[C@@H](CN(C)S(=O)(=O)c2ccc(F)cc2)[C@H](C)CN([C@H](C)CO)C(=O)c2cc(NS(=O)(=O)c3ccc(Cl)cc3)ccc2O1`, the cytotoxicity call in test [1] and in test [2] was “inactive” each time. Further, in test [3], the growth inhibition call is “inactive”.
`C[C@@H]1CN([C@H](C)CO)C(=O)c2cc(NC(=O)Nc3ccccc3)ccc2O[C@@H](C)CCCCO[C@@H]1CN(C)CC1CCCCC1`: the cytotoxicity call in test [1] and in test [2] was “inactive” each time. Besides, in test [3], the growth inhibition call is “inactive”.
Take `COc1ccc(S(=O)(=O)N(C)C[C@H]2OCc3cnnn3CCCC(=O)N([C@@H](C)CO)C[C@@H]2C)cc1`: the cytotoxicity call in test [1] and in test [2] was “inactive” each time. Besides, the growth inhibition call in test [3] was “inactive”.
In the case of `COCC#Cc1ccc2c(c1)O[C@@H](CN(C)S(=O)(=O)c1ccc(OC)cc1)[C@H](C)CN([C@@H](C)CO)S2(=O)=O`, the cytotoxicity call in test [1] and in test [2] was “inactive” in each case. Also, the growth inhibition call in test [3] is “inactive”.
Consider `CCCC(=O)Nc1ccc2c(c1)C(=O)N(C)C[C@H](OC)[C@@H](C)CN(Cc1ccc(-c3ccccn3)cc1)[C@@H](C)CO2`, for which the cytotoxicity call in test [1] and in test [2] was “inactive” throughout. Further, the growth inhibition call in test [3] was “inactive”.
On to `Cc1cc(CN)cc(C)c1NC(=O)c1ccc(-c2cc(Cl)ccc2Cl)o1`, for which the cytotoxicity call in test [1] and in test [2] was “active” each time. Also, the growth inhibition call in test [3] was “active”.
On to `C[C@@H]1CN([C@H](C)CO)C(=O)c2cc(NC(=O)Cc3cn(C)c4ccccc34)ccc2O[C@@H]1CN(C)Cc1ccc(Cl)c(Cl)c1`, for which the cytotoxicity call in test [1] and in test [2] was “active” each time. For the same compound, the growth inhibition call in test [3] was “inactive”.
For `Cc1ccc(S(=O)(=O)N(C)C[C@@H]2OCCCC[C@H](C)Oc3ccc(NC(=O)CCC(F)(F)F)cc3C(=O)N([C@@H](C)CO)C[C@@H]2C)cc1`, the cytotoxicity call in test [1] was “inactive”. Further, in test [2], the cytotoxicity call is “active”. Besides, the growth inhibition call in test [3] is “inactive”.
Turning to `C[C@H](CO)N1C[C@H](C)[C@@H](CN(C)C(=O)Nc2ccc3c(c2)OCO3)Oc2ccc(NC(=O)Cn3cnnn3)cc2C1=O`, the cytotoxicity call in test [1] and in test [2] was “inactive” throughout. In test [3], the growth inhibition call is “inactive”.
`O=C(O)CC1(n2cnnn2)CCSCC1`: the cytotoxicity call in test [1] and in test [2] was “inactive” throughout. Also, the growth inhibition call in test [3] is “inactive”.
On to `CC(NCCCc1cccc(C(F)(F)F)c1)c1cccc2ccccc12.Cl` (centres undefined), for which the cytotoxicity call in test [1] and in test [2] was “inactive” in each case. Further, the growth inhibition call in test [3] was “active”.
Regarding `Nc1nc(=O)n([C@@H]2O[C@H](CO)[C@@H](O)[C@@H]2F)cc1I`, the cytotoxicity call in test [1] and in test [2] was “inactive” throughout. The growth inhibition call in test [3] was “inactive”.
For `C[C@H](CO)N1C[C@H](C)[C@@H](CN(C)C(=O)NC2CCCCC2)Oc2ccc(NC(=O)Cn3cnnn3)cc2CC1=O`, the cytotoxicity call in test [1] and in test [2] was “inactive” throughout. Also, the growth inhibition call in test [3] was “inactive”.
Take `COc1ccc2c3c([nH]c2c1)[C@@H](CO)N(CC1CCCCC1)C[C@]13CN(C1)C(=O)Nc1cccc(c1)F`: the cytotoxicity call in test [1] and in test [2] was “inactive” throughout. The growth inhibition call in test [3] is “inactive”.
For the compound `COc1ccc(NC(=O)Nc2ccc3c(c2)[C@@H]2C[C@@H](CC(=O)NCC(F)(F)F)O[C@@H](CO)[C@@H]2O3)cc1`, the cytotoxicity call in test [1] and in test [2] was “inactive” in each case. For the same compound, the growth inhibition call in test [3] is “inactive”.
Consider `C[C@@H]1CN([C@H](C)CO)C(=O)c2cc(-c3cccc(C(=O)N(C)C)c3)cnc2O[C@@H]1CN(C)S(=O)(=O)c1ccccc1`, for which the cytotoxicity call in test [1] and in test [2] was “inactive” in each case. Further, the growth inhibition call in test [3] was “inactive”.
On to `C[C@@H]1CCCCO[C@@H](CN(C)S(=O)(=O)c2ccc(Cl)cc2)[C@@H](C)CN([C@H](C)CO)C(=O)c2cc(NC(=O)Nc3ccc(F)cc3)ccc2O1`, for which the cytotoxicity call in test [1] and in test [2] was “inactive” in each case. Besides, in test [3], the growth inhibition call was “inactive”.
Regarding `C[C@@H]1CN([C@H](C)CO)C(=O)c2cc(NC(=O)CCC(F)(F)F)ccc2O[C@@H](C)CCCCO[C@@H]1CN(C)CC1CCCCC1`, the cytotoxicity call in test [1] and in test [2] was “inactive” each time. For the same compound, in test [3], the growth inhibition call was “inactive”.
For `O=C(C[C@@H]1CC[C@@H]2[C@H](COC[C@@H](O)CN2S(=O)(=O)c2ccc(F)cc2)O1)N[C@H]1CCN(Cc2ccccc2)C1`, the cytotoxicity call in test [1] and in test [2] was “inactive” each time. The growth inhibition call in test [3] was “inactive”.
Take `C[C@@H]1CN([C@H](C)CO)C(=O)c2cccc(NC(=O)C3CCCCC3)c2O[C@@H]1CN(C)Cc1ccc(Cl)c(Cl)c1`: the cytotoxicity call in test [1] and in test [2] was “inactive” each time. Further, in test [3], the growth inhibition call was “inactive”.
For `Cc1ccc(S(=O)(=O)Nc2ccc3c(c2)C(=O)N([C@@H](C)CO)C[C@@H](C)[C@H](CN(C)Cc2ccc(C(=O)O)cc2)OCCCC[C@H](C)O3)cc1`, the cytotoxicity call in test [1] and in test [2] was “inactive” throughout. In addition, the growth inhibition call in test [3] was “inactive”.

For the origin of these results see the antibiotic and cytotoxicity screens of Wong et al. (2023).
